In US20030171435A1 (priority 2002, published 2003):

Legend:
[1] = tested on: 6H5D1C4; assay: Competition ELISA, cross reactivity with methamphetamine analogs, mAb 6H5D1C4; settings: % inhibition as compared with the antigen Met1
[2] = tested on: 3A10A6A2; assay: Competition ELISA, cross reactivity with methamphetamine analogs, mAb 3A10A6A2; settings: % inhibition as compared with the antigen Met1

SMILES	Cross reactivity with analogs, 6H5D1C4 [1] [%]	Cross reactivity with analogs, 3A10A6A2 [2] [%]
COc1ccc(CCN)cc1O [3-hydroxy-4-methoxyphenetylalamine]	1	2
NCCc1ccc(O)c(O)c1 [3-hydroxytyramine]	1	2
COc1ccc(CC(C)N)cc1 (centres unmarked) [4-methoxyamphetamine]	16	79
CNC(C)Cc1ccc(OC)cc1 (centres unmarked) [4-methoxymetamphetamine]	8	6
CSc1ccc(CC(C)N)cc1 (centres unmarked) [4-methylthioamphetamine]	100	58
CC(N)Cc1ccccc1 (centres unmarked) [Amphetamine]	1	29
CNC(C)Cc1ccc2c(c1)OCO2 (centres unmarked) [Ecstasy, 3,4-methylenedioxymethamphetamine]	6	209
CNC[C@H](O)c1ccc(O)c(O)c1 [Epinephrine]	1	3
C[C@@H](Cc1ccccc1)N(C)CC(=O)O [Hapten 1 (Met1)]	100	100
CN[C@@H](C)Cc1ccccc1 [Methamphetamine]	68	229
C[C@@H]([C@@H](O)c1ccccc1)N(C)C [Methyl pseudo ephedrine]	2	38
CCNC(C)Cc1ccccc1 (centres unmarked) [N-ethylamphetamine]	72	54
CC(N)C(O)c1ccccc1 (centres unmarked) [Nor-ephedrine]	1	2
